In all, about 39,000 compounds went through this assay and about 220 (0.56%) showed activity. This is one part of the list.
What follows are molecules tested on Escherichia coli K-12 BW25113 (assay: relative growth (OD600 normalised to plate interquartile mean) (fraction); higher = less growth inhibition, active = 0.2 or less). Settings: 50 µM; LB; incubation time: overnight (16-24 h).
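Also: static incubation at 37 °C against the wild-type strain, values averaged over two biological replicates.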

Structure (SMILES)	relative growth
C[C@@H]1CN([C@H](C)CO)C(=O)Cc2cc(NS(=O)(=O)c3cn(C)cn3)ccc2O[C@@H]1CN(C)CC1CCCCC1	inactive: 0.987
COc1ccc(NC(=O)Nc2ccc3c(c2)C(=O)N([C@@H](C)CO)C[C@@H](C)[C@H](CN(C)C(=O)NC2CCCCC2)OCCCC[C@@H](C)O3)cc1	inactive: 1
C[C@@H]1CN([C@@H](C)CO)C(=O)Cc2cc(NC(=O)Cn3cnnn3)ccc2O[C@H]1CN(C)Cc1ccccc1	inactive: 0.998
CO[C@@H]1CN(C)C(=O)c2cc(NC(=O)C3CCCC3)ccc2OC[C@@H](C)N(C(=O)Nc2ccc(C(F)(F)F)cc2)C[C@H]1C	inactive: 0.986
CS(=O)(=O)OCCCCOS(C)(=O)=O	inactive: 0.892
Cc1noc(C)c1S(=O)(=O)N(C)C[C@@H]1Oc2ccc(NS(=O)(=O)c3cn(C)cn3)cc2CC(=O)N([C@@H](C)CO)C[C@@H]1C	inactive: 0.994
C[C@H]1CN([C@@H](C)CO)C(=O)c2cc(C#Cc3ccncc3)cnc2O[C@H]1CN(C)C(=O)c1ccccc1F	inactive: 0.974
C[C@@H]1CN([C@H](C)CO)C(=O)c2cc(NC(=O)C3CC3)ccc2O[C@@H]1CN(C)C(=O)Nc1ccc2c(c1)OCO2	inactive: 0.993
Cc1ccc(C(=O)O)c(=O)n1C	inactive: 1.02
O=C(O)c1ccc(CNc2cn[nH]c(=O)n2)cc1	inactive: 1
O=C(C[C@H]1CC[C@@H]2[C@H](COC[C@H](O)CN2S(=O)(=O)c2ccc(Cl)cc2)O1)NCCN1CCCCC1	inactive: 0.993
COCC(=O)N(C)C[C@@H]1Oc2cc(-c3ccc(C#N)cc3)ccc2S(=O)(=O)N([C@H](C)CO)C[C@H]1C	inactive: 0.996
COc1ccc(S(=O)(=O)Nc2ccc3c(c2)C(=O)N([C@H](C)CO)C[C@H](C)[C@H](CN(C)C(=O)Nc2ccccc2)OCCCC[C@@H](C)O3)cc1	inactive: 0.996
C=C(C)COc1ccc([N+](=O)[O-])cc1	inactive: 0.983
CC(C)(C)[S@@+]([O-])N1Cc2cc(C(=O)NCc3ccc4c(c3)OCO4)nc(-c3ccc(-c4ccccc4)cc3)c2[C@H]1CCO	inactive: 1.04
CC(C)CC#Cc1ccc2c(c1)O[C@@H](CN(C)Cc1cncnc1)[C@H](C)CN([C@@H](C)CO)S2(=O)=O	inactive: 1.01
C[C@@H]1CCCCO[C@H](CN(C)C(=O)Nc2ccc3c(c2)OCO3)[C@H](C)CN([C@H](C)CO)C(=O)c2cc(NC(=O)Nc3ccc(F)cc3)ccc2O1	inactive: 1.02
C[C@H](CO)N1C[C@H](C)[C@@H](CN(C)C(=O)Cc2ccccc2)OCCCC[C@H](C)Oc2ccc(NC(=O)Nc3cccc4ccccc34)cc2C1=O	inactive: 1.04
COCCNC(=O)C[C@@H]1C[C@@H]2c3cc(NS(C)(=O)=O)ccc3O[C@@H]2[C@@H](CO)O1	inactive: 1.01
O=C(C[C@H]1CC[C@@H]2[C@H](COC[C@@H](O)CN2Cc2cc(F)ccc2F)O1)N[C@@H]1CCN(Cc2ccccc2)C1	inactive: 1

Structure (SMILES)	relative growth
COc1ccc(CN(C)C[C@H]2OCCCC[C@@H](C)Oc3ccc(NC(=O)NC4CCCCC4)cc3C(=O)N([C@H](C)CO)C[C@H]2C)cc1	inactive: 1.01
CC=Cc1ccc2n(c1=O)C[C@H]1[C@H](CO)[C@@H](C(=O)NC3CCC3)[C@@H]2N1S(=O)(=O)c1cn(C)cn1	inactive: 1
C[C@@H]1CN([C@@H](C)CO)C(=O)c2cc(NC(=O)Nc3ccccc3)ccc2O[C@@H]1CN(C)Cc1ccc(Oc2ccccc2)cc1	inactive: 1.01
Cc1c(NC(=O)c2cccnc2)c(=O)n(-c2ccccc2)n1C	inactive: 1.02
CCCN(CCC)c1cc(N2CCCC2)c2ccccc2c1	inactive: 0.922
COCC#Cc1cnc2c(c1)C(=O)N([C@H](C)CO)C[C@H](C)[C@H](CN(C)C(=O)c1cnccn1)O2	inactive: 1.02
C[C@@H]1CN([C@H](C)CO)C(=O)c2cccc(NC(=O)c3ccc(-c4nccs4)cc3)c2O[C@H]1CN(C)C(=O)NC1CCCCC1	inactive: 0.992
C=CCOC(=O)[C@@H]1[C@H]2C(=O)O[C@H](c3ccccc3)[C@H](c3ccccc3)N2[C@H](c2ccc(OCCOC(=O)[C@@H]3C[C@@H]4C(=O)NCC(=O)N4[C@@H]3c3ccc(O)cc3)cc2)[C@@]12C(=O)Nc1ccc(I)cc12	inactive: 1.05
CN1C(=O)[C@H]2[C@H](C1=O)[C@H]1C=C(CCCO)[C@@H]2[C@H](c2ccc(CN3CCCC3)cc2)N1Cc1sc2ccccc2c1Cl	inactive: 0.976
C[C@@H]1CN([C@@H](C)CO)C(=O)c2cc(C3=CCCC3)cnc2O[C@H]1CN(C)C(=O)c1ccc2c(c1)OCO2	inactive: 0.988
CNC[C@H]1Oc2c(NS(=O)(=O)c3cn(C)cn3)cccc2C(=O)N([C@H](C)CO)C[C@@H]1C	inactive: 0.988
CCCC#Cc1ccc2c(c1)O[C@@H](CN(C)S(=O)(=O)c1cccc(OC)c1)[C@H](C)CN([C@H](C)CO)S2(=O)=O	inactive: 1.06
CNC(=O)c1cccc(CN)c1	inactive: 1.01
COc1ccc(S(=O)(=O)N[C@@H]2CC[C@H](CCNC(=O)CN3CCOCC3)O[C@H]2CO)cc1	inactive: 1.01
CC(C)NC(=O)N(C)C[C@H]1Oc2cc(C#Cc3ccccn3)ccc2S(=O)(=O)N([C@H](C)CO)C[C@H]1C	inactive: 1
C[C@@H]1CN([C@@H](C)CO)C(=O)c2cc(NS(=O)(=O)c3cccs3)ccc2O[C@@H]1CN(C)S(=O)(=O)c1ccccc1	inactive: 1
C[C@@H]1CN([C@@H](C)CO)C(=O)Cc2cc(NC(=O)NC3CCCCC3)ccc2O[C@@H]1CN(C)Cc1ccc(C(F)(F)F)cc1	inactive: 1.02
Cc1ccccc1/C=C(\CCC(=O)O)c1nc2ccccc2s1	inactive: 1.02
C[C@H]1CN([C@@H](C)CO)C(=O)c2cccc(NC(=O)Nc3ccc(F)cc3)c2O[C@H]1CN(C)Cc1ccc(C(=O)Nc2ccccc2N)cc1	inactive: 0.986
CO[C@@H]1CN(C)C(=O)c2ccc(NS(=O)(=O)CC(F)(F)F)cc2OC[C@H](C)N(Cc2cccnc2)C[C@H]1C	inactive: 0.987

From the supplement of paper PMC9446081
